# Data as given in the BET-seq Pho4 binding data (Le et al. 2018).
# The other results are listed elsewhere or left out. These are noisy estimates, calculated here from bound and input reads.
# Target: T1, Pho4 (S. cerevisiae) (UniProt P07270)
# T1 sequence: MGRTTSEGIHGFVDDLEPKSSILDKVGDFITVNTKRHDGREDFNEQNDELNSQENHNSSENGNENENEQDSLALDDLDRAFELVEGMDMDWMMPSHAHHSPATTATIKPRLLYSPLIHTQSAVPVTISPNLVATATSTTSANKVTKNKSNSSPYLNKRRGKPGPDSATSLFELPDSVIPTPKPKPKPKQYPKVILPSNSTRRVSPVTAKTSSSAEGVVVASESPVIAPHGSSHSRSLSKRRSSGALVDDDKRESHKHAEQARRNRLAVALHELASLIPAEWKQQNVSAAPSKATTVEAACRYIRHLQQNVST
# Test: relative binding free energy (BET-seq); higher = weaker binding
# Settings: reference: library average
row,Sequence,relative binding free energy
1,GAAGTCACGTGGGTGA,0.03 kcal/mol
2,AATATCACGTGGGGCG,-0.07 kcal/mol
3,GTATACACGTGTTGTG,-0.04 kcal/mol
4,GTGCGCACGTGCGTGA,-0.2 kcal/mol
5,GGTAGCACGTGAGAAT,0.24 kcal/mol
6,TTTGGCACGTGTAGAT,0.12 kcal/mol
7,TTTGACACGTGATGCT,0.18 kcal/mol
8,CGTGTCACGTGTGGGG,0.06 kcal/mol
9,GGTTGCACGTGGGATC,0.01 kcal/mol
10,GGGCGCACGTGTGTTC,-0.07 kcal/mol
11,GCTTTCACGTGGAATG,0.35 kcal/mol
12,TTTTACACGTGTTTGA,0.05 kcal/mol
13,CGAAGCACGTGGTGAG,-0.05 kcal/mol
14,CTTATCACGTGAGGGA,0.39 kcal/mol
15,CGTTGCACGTGTGCTG,-0.04 kcal/mol
16,TGTTACACGTGGGATC,0.06 kcal/mol
17,TGGGACACGTGAGGAC,0.2 kcal/mol
18,GCTTTCACGTGGGGAG,0.26 kcal/mol
19,CGAGTCACGTGTGGAT,0.08 kcal/mol
20,TGAAGCACGTGGGCGA,-0.18 kcal/mol
21,GGGCCCACGTGGGTGA,-0.13 kcal/mol
22,GACAGCACGTGGGGGG,-0.11 kcal/mol
23,GTAATCACGTGATGGA,0.25 kcal/mol
24,CTGTGCACGTGTTTTT,0.04 kcal/mol
25,TTTTTCACGTGGTAGT,0.38 kcal/mol
26,AGAGGCACGTGTAGGT,-0.17 kcal/mol

row,Sequence,relative binding free energy
1,TGGAGCACGTGTCGTA,-0.1 kcal/mol
2,GGAGACACGTGGCGGC,0.05 kcal/mol
3,GTATTCACGTGGGGTG,0.15 kcal/mol
4,GTTGTCACGTGAAGTC,0.34 kcal/mol
5,CGGGGCACGTGTGGTT,0.04 kcal/mol
6,CGGTCCACGTGTATGT,0 kcal/mol
7,AGGTGCACGTGCCTTG,-0.1 kcal/mol
8,TGATACACGTGGGTTT,0.07 kcal/mol
9,CGGTGCACGTGTTGCT,-0.09 kcal/mol
10,AGTATCACGTGAATTT,0.27 kcal/mol
11,TCGCGCACGTGGTGTG,-0.24 kcal/mol
12,GTATTCACGTGGTAAG,0.28 kcal/mol
13,GTTATCACGTGATGTT,0.38 kcal/mol
14,AAATTCACGTGGTGAT,0.25 kcal/mol
15,TTTCTCACGTGGTTTT,0.3 kcal/mol
16,GCGGGCACGTGAAGTG,0.18 kcal/mol
17,GGTCTCACGTGGTGGA,0.23 kcal/mol
18,TTCGTCACGTGTTGGC,0.11 kcal/mol
19,GTATTCACGTGAATGG,0.32 kcal/mol
20,GGTCACACGTGGCGTG,0 kcal/mol
21,GGCATCACGTGCGGTA,0.27 kcal/mol
22,CTTGCCACGTGGTGTG,-0.29 kcal/mol
23,GGGATCACGTGGGTGC,0.04 kcal/mol
24,ATAGGCACGTGTCTGG,-0.26 kcal/mol
25,CCTGGCACGTGTTATT,0.06 kcal/mol
26,TGGAGCACGTGGAGCG,-0.04 kcal/mol

row,Sequence,relative binding free energy
1,TGGAGCACGTGACTGA,0.13 kcal/mol
2,GGCGACACGTGGAGAG,0.06 kcal/mol
3,GTTAGCACGTGCTTTT,-0.02 kcal/mol
4,TTGGACACGTGGGCTT,0.02 kcal/mol
5,CGGTGCACGTGAGTTG,0.15 kcal/mol
6,TGGGGCACGTGAGGAT,0.18 kcal/mol
7,AAATACACGTGGGTGC,0.01 kcal/mol
8,TTGTACACGTGGCATT,-0.05 kcal/mol
9,GATTACACGTGTGCTG,0.22 kcal/mol
10,GGGTTCACGTGGCTTT,0.2 kcal/mol
11,AGGTTCACGTGGTCAT,0.29 kcal/mol
12,TGATGCACGTGGGGAG,-0.16 kcal/mol
13,GTAGCCACGTGAAGTT,0.27 kcal/mol
14,GGTACCACGTGTGTGG,-0.07 kcal/mol
15,AGGGACACGTGGTGCG,-0.04 kcal/mol
16,GTTGTCACGTGGTGTT,0.09 kcal/mol
17,AGGTGCACGTGTTTCG,-0.1 kcal/mol
18,CTTATCACGTGTCTGT,0.05 kcal/mol
19,AAGAACACGTGTGGGT,0.06 kcal/mol
20,TGGGACACGTGAGGAT,0.3 kcal/mol
21,TGCGACACGTGAGAGG,0.28 kcal/mol
22,AGTTGCACGTGCGGTT,-0.04 kcal/mol
23,CGCGTCACGTGGTGGG,0.02 kcal/mol
24,GAGGTCACGTGAGCTG,0.29 kcal/mol
25,GGAGACACGTGGCGTG,-0.02 kcal/mol
26,TAGTACACGTGATGCG,0.09 kcal/mol

row,Sequence,relative binding free energy
1,CAGTGCACGTGATGAT,0.1 kcal/mol
2,AACGTCACGTGTGTTG,0.17 kcal/mol
3,GTATACACGTGTGGAA,0.24 kcal/mol
4,ATACGCACGTGTAGTT,-0.08 kcal/mol
5,TGGTACACGTGAGAAT,0.29 kcal/mol
6,GTTATCACGTGGTCTG,0.14 kcal/mol
7,TAGCCCACGTGTTTGG,-0.06 kcal/mol
8,AAGGGCACGTGAGGAC,0.12 kcal/mol
9,TGGGTCACGTGCAGGA,-0.07 kcal/mol
10,ACAGTCACGTGGTGGG,0.02 kcal/mol
11,CGATGCACGTGTATGG,0.08 kcal/mol
12,GTTGGCACGTGGCCAG,-0.26 kcal/mol
13,GGTATCACGTGAGTAG,0.26 kcal/mol
14,GTATACACGTGACTGT,0.29 kcal/mol
15,AGAGTCACGTGGTCTG,-0.13 kcal/mol
16,TATGTCACGTGCGATA,0.28 kcal/mol
17,CTTGTCACGTGTGATG,0.18 kcal/mol
18,AGATGCACGTGGTAAG,-0.09 kcal/mol
19,TAGTTCACGTGCCTGG,0.14 kcal/mol
20,TGTGACACGTGCTCGG,-0.05 kcal/mol
21,TTGATCACGTGGTATG,0.13 kcal/mol
22,CGGATCACGTGGAAGT,0.28 kcal/mol
23,TGGTTCACGTGATATT,0.3 kcal/mol
24,CGTTCCACGTGGTGTG,-0.18 kcal/mol
25,ACGGGCACGTGATTGT,-0.04 kcal/mol
26,TACTGCACGTGAGTGG,0.13 kcal/mol

row,Sequence,relative binding free energy
1,GAGTGCACGTGTCATG,0.01 kcal/mol
2,AGGATCACGTGGAATA,0.32 kcal/mol
3,AGTTGCACGTGCAAGA,0.19 kcal/mol
4,TCTAGCACGTGTTTAT,0.01 kcal/mol
5,AAGGGCACGTGCTAGG,-0.2 kcal/mol
6,TTCGTCACGTGTTTAA,0.1 kcal/mol
7,TTGGGCACGTGGCCAG,-0.21 kcal/mol
8,GGGGTCACGTGCGACG,0.13 kcal/mol
9,ATAGCCACGTGGGGGT,-0.36 kcal/mol
10,GGTGACACGTGAGTGT,0.28 kcal/mol
11,GTTGTCACGTGTAACT,0.35 kcal/mol
12,AAGTTCACGTGCGGAG,0.24 kcal/mol
13,AAGATCACGTGAGGGG,0.12 kcal/mol
14,TCGGTCACGTGGGGTT,-0.06 kcal/mol
15,TGGATCACGTGGTTTA,0.11 kcal/mol
16,ATGGTCACGTGGCTCA,0.14 kcal/mol
17,TGATGCACGTGTCGGG,0.05 kcal/mol
18,TTTCGCACGTGAGTGA,0.19 kcal/mol
19,CTTGGCACGTGGAGTG,-0.13 kcal/mol
20,AAGATCACGTGGGCGG,-0.07 kcal/mol
21,TTGCTCACGTGGTCGG,0.09 kcal/mol
22,AGGTACACGTGGTTAC,0.06 kcal/mol
23,CTGGGCACGTGTTTGC,-0.04 kcal/mol
24,TTGGGCACGTGATTTG,0.06 kcal/mol
25,ACGGGCACGTGGGTGA,-0.15 kcal/mol
26,TGTCTCACGTGGCTTG,0.05 kcal/mol

row,Sequence,relative binding free energy
1,GGTTACACGTGTTTAC,0.15 kcal/mol
2,TTGATCACGTGCTGGT,0.06 kcal/mol
3,GTATACACGTGTGAGG,0.03 kcal/mol
4,TGGTTCACGTGCCGGT,0.24 kcal/mol
5,ATAATCACGTGCTATT,0.07 kcal/mol
6,AGGCGCACGTGCTGGG,-0.17 kcal/mol
7,GTGTTCACGTGAATGT,0.4 kcal/mol
8,TCGGTCACGTGGTCTA,0.05 kcal/mol
9,ATTTACACGTGGTGCT,-0.02 kcal/mol
10,GGTTTCACGTGGGGGT,0.25 kcal/mol
11,CTAGGCACGTGGTATG,-0.24 kcal/mol
12,AGAGTCACGTGTTTTT,0.22 kcal/mol
13,TGAGTCACGTGCGTTC,0.22 kcal/mol
14,TAGAACACGTGGTGTG,-0.04 kcal/mol
15,AAAGACACGTGGGTCG,-0.16 kcal/mol
16,TGCGACACGTGGCGTG,-0.19 kcal/mol
17,GTGATCACGTGGGGTA,0.02 kcal/mol
18,GAGGGCACGTGTATGT,-0.01 kcal/mol
19,CTGGGCACGTGGGCTT,-0.15 kcal/mol
20,GTTGGCACGTGGATGA,-0.16 kcal/mol
21,AAGATCACGTGGTTAT,0.1 kcal/mol
22,TTAAACACGTGGGGGA,-0.02 kcal/mol
23,TGTAGCACGTGGCTGG,-0.25 kcal/mol
24,GGGCGCACGTGGGGAT,-0.12 kcal/mol
25,TTGCACACGTGATGGG,0.2 kcal/mol
26,AGGCGCACGTGATATT,0.17 kcal/mol

row,Sequence,relative binding free energy
1,TTGAGCACGTGACTGT,-0.02 kcal/mol
2,GGAGACACGTGGGGGC,-0.03 kcal/mol
3,TGTACCACGTGTTTAT,-0.05 kcal/mol
4,AGTGGCACGTGAAGAA,0.19 kcal/mol
5,TAGTGCACGTGTCGGA,0.1 kcal/mol
6,ATTTTCACGTGGATGT,0.27 kcal/mol
7,TTTGACACGTGGCATT,-0.02 kcal/mol
8,AGGTCCACGTGGGCGA,-0.15 kcal/mol
9,GAATGCACGTGTGGTC,0.13 kcal/mol
10,TCAATCACGTGTTTGG,0.05 kcal/mol
11,TAGAGCACGTGGGTTA,-0.23 kcal/mol
12,AGTCGCACGTGGGTAG,-0.13 kcal/mol
13,ATTTGCACGTGGTGAA,0.05 kcal/mol
14,TTAGGCACGTGATTGC,-0.2 kcal/mol
15,TTCGACACGTGGGATT,0.11 kcal/mol
16,AAGTGCACGTGGCGTG,-0.03 kcal/mol
17,TTTCCCACGTGGGGGG,-0.16 kcal/mol
18,GTAGCCACGTGTGGTG,0.02 kcal/mol
19,TTATCCACGTGGAGTT,0.01 kcal/mol
20,TGGGGCACGTGAACAT,0.07 kcal/mol
21,GTTAGCACGTGTTAGC,-0.07 kcal/mol
22,GTCTGCACGTGATTGA,0.22 kcal/mol
23,TCTAACACGTGGGGGT,-0.21 kcal/mol
24,TATGACACGTGTATAT,0.13 kcal/mol
25,ATTTCCACGTGTTAGT,0.02 kcal/mol
26,GTAACCACGTGTGGGG,-0.04 kcal/mol

row,Sequence,relative binding free energy
1,CGGGGCACGTGCGGTG,-0.2 kcal/mol
2,GGGTGCACGTGAAGGA,0.27 kcal/mol
3,AATTTCACGTGGGGCA,0.17 kcal/mol
4,TTGATCACGTGAGTTA,0.32 kcal/mol
5,CATTTCACGTGAATTT,0.34 kcal/mol
6,AAGGGCACGTGTGAAT,-0.17 kcal/mol
7,AGGCACACGTGGTTAG,-0.08 kcal/mol
8,CGTTGCACGTGGTGTG,-0.09 kcal/mol
9,TCGGACACGTGGGAGG,-0.01 kcal/mol
10,TGCTGCACGTGTCGTT,0.08 kcal/mol
11,AGTATCACGTGGCGTG,0.19 kcal/mol
12,CTATGCACGTGGGGAT,-0.27 kcal/mol
13,GGTGTCACGTGAGGTT,0.37 kcal/mol
14,TGTAACACGTGGGATG,0.02 kcal/mol
15,GGGATCACGTGGTATT,0.08 kcal/mol
16,TGGATCACGTGGTGAC,0.22 kcal/mol
17,GGTGGCACGTGATCGG,0.03 kcal/mol
18,TGAAGCACGTGAAGTT,0.4 kcal/mol
19,ATGTACACGTGTGGGC,0.15 kcal/mol
20,TGGCTCACGTGTGTAT,0.32 kcal/mol
21,TATCTCACGTGGGTCG,0.14 kcal/mol
22,AGGATCACGTGAATTT,0.36 kcal/mol
23,GGTTGCACGTGTAAGT,0.02 kcal/mol
24,AGTGGCACGTGCTGGA,-0.15 kcal/mol
25,TATCACACGTGGTGGT,0.05 kcal/mol
26,TTGTACACGTGAATGA,0.22 kcal/mol

row,Sequence,relative binding free energy
1,GATAGCACGTGGCTGG,-0.25 kcal/mol
2,GTTAGCACGTGAAATT,0.34 kcal/mol
3,AAGAACACGTGATTTT,0.36 kcal/mol
4,GGTGGCACGTGTATTA,0.08 kcal/mol
5,TTGTGCACGTGTAATA,0.07 kcal/mol
6,TAGATCACGTGCGTTT,0.09 kcal/mol
7,TTTTACACGTGTGGTT,0.18 kcal/mol
8,GGTTACACGTGATTAG,0.09 kcal/mol
9,AATGTCACGTGTAATG,0.07 kcal/mol
10,TGAGACACGTGTGATT,0.28 kcal/mol
11,GGTATCACGTGCGTGA,0.14 kcal/mol
12,TTAAGCACGTGAGTAT,0.03 kcal/mol
13,GTAGTCACGTGATGAG,0.27 kcal/mol
14,TCCGGCACGTGGGTAT,-0.05 kcal/mol
15,GGTTGCACGTGACGTC,0.26 kcal/mol
16,CTTAGCACGTGCGGGG,-0.18 kcal/mol
17,TGAGTCACGTGTTTTT,0.26 kcal/mol
18,TTTTACACGTGAGTGT,0.34 kcal/mol
19,GGTTACACGTGGGGCG,0.14 kcal/mol
20,ATTGGCACGTGACGGC,-0.01 kcal/mol
21,TGGGTCACGTGGGAGA,-0.02 kcal/mol
22,AGGGCCACGTGGTAGT,-0.21 kcal/mol
